The supplement of paper PMC11417369
± gives the standard deviation of the averaged measurements. Some of the results follow.

Each sequence was assayed on PfAP2-G AP2 domain (GST-tagged) (assay: gcPBM binding intensity (ln(normalized median fluorescence intensity)); higher = stronger DNA binding).
Outline: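 In this array assay, P. falciparum DNA-binding domains with a GST tag, expressed in E. coli, were applied for 1 h to primer-extended double-stranded 36-bp intergenic genomic probes and negative controls on an Agilent 4 × 180k array. Bound protein was visualised with Alexa488 anti-GST antibody at 488 nm. Binding intensity is the highest Masliner-normalised natural-log median intensity across replicate spots of either probe orientation.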

Sequence	gcPBM binding intensity (ln)
ATATGCGTTTGCAAATGTACATATTATTTATATATA [XGTACX_site7128]	11 ± 0.63
TTTTTTGGTTTTCATGCACACAATTTATAAATCTAT [CACACA_site3106]	10.4 ± 0.18
CATTATGTTGTAAATACACACATACAGATACATACA [CACACA_site4565]	10.3 ± 0.16
ATAATTCTTTTACTGTGTACATATTATCACTTATTT [XGTACX_site2456]	11.4 ± 0.76
TGTAATTGTTTAAAGGGTACATATATCAGATGTCTT [XGTACX_site5877]	11 ± 0.59
ATAATAATATTTCTATGTACTTATTTTATGTATTAG [XGTACX_site1747]	11.4 ± 0.96
AAAAATTAAAATATAACTAATTAATTTGTATTCATT [CACACA_negctrl_site1633]	9.44 ± 0.23
TATAAATACTTAGAAACACACAAAAATATTTTATAA [CACACA_site7259]	10.06 ± 0.071
GTAGGGGAAAAAAAAACACACAAAAAACAACAGATC [CACACA_site1187]	10.3 ± 0.26
TTATCTCTACAAAGTGCACACACGTAAAAACATATA [CACACA_site3957]	10.5 ± 0.4
TTTTGTTTTTGTAGAGTGCATAAAGAAGATATGTAT	10.3 ± 0.31
TGGAAACAATGACACACACACAAAAAAAAAAAAAAA [CACACA_site7494]	9.98 ± 0.45
TTAGTAAATACATTTGCACACATTATTTTTTAACAT [CACACA_site5448]	10.11 ± 0.078
AGTATAGATGTATACACACACCAAACGTTAAAAAAA [CACACA_site7443]	10.2 ± 0.14
GGAAATATAAAATCATGTACATATGTATATATAATT [XGTACX_site5491]	11.1 ± 0.61
ATGAATATATATATTTGTACATATGTATATATATAT [XGTACX_site7527]	10.9 ± 0.54
TATATATTTTTTTCATGTACTTATTATATATATATA [XGTACX_site5321]	11.4 ± 0.83
AATATTATATGGACGTGTCCACATAAACCTATATAT [XGTACX_site2053]	11.3 ± 0.75
ATTTATTTATTTATATGTACTTAAATGAAAGGAATA [XGTACX_site6024]	11.3 ± 1
TTTCAAAATTTTTATTTTAAATAAACATTTATAAAA [CACACA_negctrl_site1588]	9.575 ± 0.035
CCGATATAATGGAAAACACACAAAAGATATATATAT [CACACA_site2683]	9.95 ± 0.28
ACATACATTTTTAAATGTACATATATATATATATAT [XGTACX_site6751]	10.9 ± 0.48

Sequence	gcPBM binding intensity (ln)
ATATGGCACATATGTACACACGTATAGATAATATTA [CACACA_site5162]	11.5 ± 0.93
ATATATATATATAATACACACATCATAAAATATGTA [CACACA_site2518]	10 ± 0.33
AAAATAAATTGTGAAGGTACACAAATTATTATGTGG [XGTACX_site4196]	11.1 ± 0.64
TATATTTTAAAATTATGTACATATATAGATAAATGT [XGTACX_site1349]	11.3 ± 0.52
ATATAAATATAGTGTGCACACACATAATATATATAT [CACACA_site8713]	10.4 ± 0.25
TATCATCATGTATGTACACACATACAGATATTATGT [CACACA_site4888]	11.3 ± 0.69
AAATACAAAATTGTTACACACATATTAATTATGACA [CACACA_site476]	10 ± 0.13
TATTTAAATGGATGCACACATGCATTAAATAAAATA [CACACA_site3433]	10.1 ± 0.18
TGTAATGTTTACAACACACAAATTATAAATACAAAA [CACACA_site5047]	9.985 ± 0.007
AATCATATTTAGATTACACACAGTTTAAATATTTTA [CACACA_site1263]	9.71 ± 0.18
TATATATATATATATATATATATATATATAATATTA [XGTACX_negctrl_site558]	9.93 ± 0.79
TTATGCAGATAAAAGAGTACATATTCGTTACATACA [XGTACX_site2849]	11.3 ± 0.86
TCGATATATAGACACACACACTTTTAATAATTAAAT [CACACA_site7726]	10.2 ± 0.24
TACAAACAGACATATACACACAAAAAAAAAATAAAA [CACACA_site2562]	10.1 ± 0.33
GTTAGCATATTAAGTTGTACACAATTATTCTTCAAT [XGTACX_site8324]	11.6 ± 0.93
TGGTATTTTGATGATAAAAGGAAATTTTTTTTATAC [XGTACX_negctrl_site111]	10.1 ± 0.27
AATATAATATAATGCACACATAAACAAAAAAAAAAA [CACACA_site783]	10.2 ± 0.38
GTAATTAAAATATATACACACAAAGGCTATTAAATA [CACACA_site1011]	9.96 ± 0.057
TATATAAAATATTAATGTACATATAAATATATATAT [XGTACX_site6656]	11.3 ± 0.7
ATTTATGAAAGAAATAGTACACACATAAACATTTGT [XGTACX_site5862]	11.4 ± 0.87
TTTAATTTTTTTAAAACACACAAATATATATATATA [CACACA_site3898]	10.1 ± 0.67
CAAAATAATATATATACACACACACCGATATATATA [CACACA_site8082]	9.915 ± 0.021

Sequence	gcPBM binding intensity (ln)
TTTAATACGAATGAGGCACACACCTAGTATACATGC [CACACA_site621]	10.2 ± 0.11
GATACATAGAAACACACACACATACATATATACATA [CACACA_site3438]	10 ± 0.16
TCACAAAAAGAACATTGATATTATTATAAAATCGTC [GTGCAC_negctrl_site177]	9.73 ± 0.11
TTTATGTACAGACATATACACACCTCTATAATATAT [CACACA_site730]	11.1 ± 0.73
ATATAAAAAAATTGCACACATAAATATATACATATA [CACACA_site1218]	10.12 ± 0.064
TATTGTAATATTATATATATCTATTATGTATATAAA [CACACA_negctrl_site454]	9.61 ± 0.13
AATTATATATTAAAAAGTACAAGTTAATATAATATA [XGTACX_site2737]	11.3 ± 0.77
TAATTAAAATTATTTATAAATTAGTATATTTCTATA [CACACA_negctrl_site663]	9.465 ± 0.035
TTATTATTTTATCGTAGTACACCTAAATTATAAAAC [XGTACX_site5251]	11.4 ± 0.97
ATTAATAATCGAAAGGTGCACTTTGATTTGATAACA	10.7 ± 0.8
ATATATTTTTCAAAATGTACAAATAATTAAATACCA [XGTACX_site875]	10.7 ± 0.49
TAATAAATTATTTTTTATTATTTTAATAACACTTCA [CACACA_negctrl_site3]	9.4 ± 0.2
TTACAAAAATTTTGTTCACACATAAAAATATGTTAC [CACACA_site5740]	10.1 ± 0.2
GGCAAATTTATTATACCCACATACATACATACATAC [XGTACX_negctrl_site186]	10.8 ± 0.62
AAAATTAAACAAAGTTGTACAAAATAATAATAAAAG [XGTACX_site7515]	11.2 ± 0.62
AAATTAATAAAAAATGGTACACAAAATGGATGTATA [XGTACX_site1561]	11.3 ± 0.57
TTAACTATGAATACATGTACATGAAAATATTTCAAT [XGTACX_site1069]	11.2 ± 0.68
ACCCTATAGGTAACTACACACCGCATATTGTTTACT [CACACA_site7436]	10.22 ± 0.049
TTTATATTAATTGATGTGCACTGAAATATTTGTCCA [GTGCAC_site9655]	10.2 ± 0.25
AAATGTGATATAAGTACACACACATATGTATATATA [CACACA_site8539]	11.4 ± 0.98
AACGAAATCATCAAGTGTACTAGTTTATTATTAATA [XGTACX_site6161]	11.3 ± 0.98
AAAAAGGATAAACACACACACACACCGATATATATA [CACACA_site8206]	9.97 ± 0.099

Sequence	gcPBM binding intensity (ln)
TTATTTTTGTGTAAGGTGCTATATATAATGTTTTTA	10 ± 0.17
AATAAATAAATAAATATATATATATATATATATATG [CACACA_negctrl_site899]	9.65 ± 0.19
TTTTGTTGATTTATATCTGTAGGGTTTAATATAACA [XGTACX_negctrl_site174]	9.98 ± 0.25
TATGTATATTATATGACACACATTTATATATATATA [CACACA_site1167]	10.3 ± 0.62
TATATATCCATGTGTACACACAAAAAAAAATAAAGT [CACACA_site7107]	11.7 ± 0.93
AAATATGTTTATATATGTACTTATAATTCAAAATAT [XGTACX_site2167]	11.2 ± 0.83
TCTATGCGTTTTAATAGTACATATAAAATTTATACA [XGTACX_site6986]	11 ± 0.69
AAAATAAAATAAAACACAAAAAAATAAAACAAAATA [CACACA_negctrl_site16]	9.795 ± 0.035
CCATGTCACAATTTTTCACACACAAAATTTATATAC [CACACA_site8628]	10.3 ± 0.44
TAATTAACAAACTATAGTACACAAAATACTTCATAT [XGTACX_site6375]	11.2 ± 0.79
ATATACACACATAAGTGTACTTATATTTCATATATA [XGTACX_site8646]	11.6 ± 0.81
TTTAAATGAAAAAAAGGTACACAATATTATTCTTAT [XGTACX_site8612]	11.3 ± 0.77
GGATATAACAAACACACACACACATATATATATATT [CACACA_site4141]	9.95 ± 0.042
AATACATATAATACAACACACAAGTAATATAAACCT [CACACA_site3597]	9.95 ± 0.042
AAAAAAAAAAAACACACACACACACTAGTATATAAA [CACACA_site4783]	10.1 ± 0.19
AAGAAAAAAAAAAATATATATACATATATATATATA [TGCATGCA_negctrl_site485]	9.82 ± 0.57
AATACTTATTATGAAACACACACCAAAACTACATAA [CACACA_site270]	10.3 ± 0.31
ATATATATATATTTATGTACATATATTTTTTTTTTT [XGTACX_site8558]	11.2 ± 0.74
AATGTATATATATATATATATATATATATTTATTTA [CACACA_negctrl_site113]	9.51 ± 0.19
AAGAAAATAGAAAATACACACAGCAAACAGAGGAAT [CACACA_site3785]	10.06 ± 0.071
AAATTTATTATATATACATGCAATCATAAATAATGT [TGCATGCA_site539]	9.795 ± 0.078
AATAAATAAATACATCTCAGTATATAAACAAACAAA [CACACA_negctrl_site1604]	9.9 ± 0.057
